Test results published in PMC7923178, “Binding of Amyloid β(1–42)-Calmodulin Complexes to Plasma Membrane Lipid Rafts in Cerebellar Granule Neurons Alters Resting Cytosolic Calcium Homeostasis” (International Journal of Molecular Sciences, 2021).

Assay: Aggregation state of Aβ(1–42) solutions, photoinduced cross-linking and Tricine-SDS-PAGE
Conditions: 177 μM; photoinduced cross-linking, Tricine-SDS-PAGE

Aβ(1–42): Unlabeled amyloid β(1–42) peptide synthesized and supplied by StabVida
monomers in stock solutions: not detected
predominant aggregation state in stock solutions: dimers were the predominant aggregation state
